The source gives no read counts; variants with many changes may rest on few reads.

The labels stand for the following.
B1: LINE1-full (parent)
chain: UACGUAGGUGGUUUUCCCCUGAUAGUGCUAAGGGGGCCUGGAAGUUUGGACUGGGCAGAGCUCAACACAGCGUGGCAAAGUGGCUGUGGCUAGACUGCCUCUCUGGAUUCCUCGUCACUCAGCAGGGCAUCUCUGAGAGAAAUGCC

This series covers variants of B1. Description: self-cleavage, relative activity (ratio to wild type); higher = more cleavage; in vitro, sequencing; the parent is a self-cleaving ribozyme.
Take U12C U20C G21C A77G G86A: the self-cleavage was determined as 0.47.
For C19U U46G A141U A142G the value was 1.26.
U13C C37G A141G C146U: the self-cleavage was determined as 1.05.
Regarding U29C U134C A138G C146U, the self-cleavage amounted to 1.28.
As to U85C U119C A142U, the self-cleavage stood at 0.19.
As for U14C A31U A42G, the self-cleavage worked out at 1.1.
Turning to U1A A77U A78U A140C, the self-cleavage worked out at 0.58.
Consider U14C C19U A64G U87A, for which the self-cleavage turned out to be 0.22.
Regarding A57U A92G C101A U112A, the self-cleavage came to 0.12.
Turning to U14C C19U G55A, the self-cleavage came out at 0.14.
Regarding A31G U130A A136G, the self-cleavage stood at 1.57.
Turning to A30G U52C G137U A141G G144U, the self-cleavage is 0.79.
Take U13C A22G G126U: the self-cleavage stood at 0.77.
As to U52C U62C U109C G114U U143C, the self-cleavage is 0.02.
Regarding U20A U85A A94G U132C, the self-cleavage worked out at 0.1.
For the variant C98U U112C U119C, the self-cleavage amounted to 0.2.
As to G11U C28A A77G, the self-cleavage was 1.15.
Consider U9C A43G U46C A138G A141G, for which the self-cleavage is 2.3.
For the variant A57U G97A U132C U134C G144U, the self-cleavage worked out at 0.02.
In the case of U47C A69G G83A, the self-cleavage amounted to 0.16.
For the variant U13C G48U A57G A121G, the self-cleavage was 1.05.
As to A6G U52C A121C, the self-cleavage was 0.63.
For A6G U39G A64C U87A the value was 0; for U26C A69U U143A, 0; for U26C U62G U81A, 0.22.
The value for U12C U15C U62C was 0.12; that for U14C U29C A31U A94G was 0.45.
The value for A22U U62C G122A was 0.04.
On to G70A A77C U112C A141G, for which the self-cleavage amounted to 0.12.
For U14C A59G A141G, the self-cleavage stood at 0.1.
Regarding U1A A22G U46G U47A, the self-cleavage was 2.12.
For A22G G33A A59G U132C, the self-cleavage came out at 0.16.
Turning to A57U U81A U91C, the self-cleavage stood at 0.09.
Consider U12G U47C A57G A138G, for which the self-cleavage amounted to 0.
The value for U20A A31U A79G U85C U100C was 1.84; that for A22U U85C A141G was 0.11; that for U23A A69U U96C was 0.03.
In the case of A67G U132C U134C, the self-cleavage amounted to 0.
Consider U47A U52C U62C, for which the self-cleavage came out at 0.
For A69U U87C U108C U132C the value was 0; for U12C A42G U46C G58A U81C A140G, 0.
For U9A A78G U134C, the self-cleavage turned out to be 0.56.
On to U14C U45A A77G A94U G126C, for which the self-cleavage was 0.54.
Regarding U20C A79G G137U, the self-cleavage amounted to 0.9.
As to G36C U85C U102C, the self-cleavage was determined as 0.
Take A64U A121C U132C: the self-cleavage was determined as 0.75.
With G36U A77G U130C, the self-cleavage came to 2.56.
In the case of U12G U14C A57U A67U U100C U112C C113A U143C, the self-cleavage is 0.28.
For U5C U45A A50U, the self-cleavage is 0.94.
For the variant U26C U130C A136U, the self-cleavage worked out at 0.95.
The value for U9A U29A U45C A117U was 0.84.
For U73A U109A C116U, the self-cleavage worked out at 1.03.
For U81A U91A G122A A138U the value was 1.07; for U62A G106A A129G, 0.04; for U20A A43U U52A U130C, 1.21.
For the variant A2G U73A C76U, the self-cleavage amounted to 1.89.
Take A42G A67U U85A: the self-cleavage was 0.04.
For A24G A92G A136G A138G A141G the value was 1.41; for U29C A124G A136G, 1.31.
For C19U A92G U104A the value was 0.07.
With A22G A78U A142C, the self-cleavage was 1.84.
Turning to U9C U62C A136G, the self-cleavage amounted to 0.05.
For A6U U26C G58A G144A the value was 0.13.
Take U46C A64U U115C: the self-cleavage came to 0.71.
With U45A G49C A69U A138G, the self-cleavage worked out at 0.05.
Regarding A64G G126U A129G U143C, the self-cleavage turned out to be 0.45.
In the case of A31C U47A U62C U104A G139U, the self-cleavage is 0.04.
The value for U23A G54A U108C U130C was 0.84; that for U26C U45C U47C U81A was 1.07; that for A31G U46C A57U was 0.36.
For the variant U20C U45G A124G C146U, the self-cleavage came to 0.75.
For U1C U47A U52A A129G A142G the value was 0.54; for U47A U109C A138G, 1.47.
Take U14C A31U U39A U132C: the self-cleavage worked out at 1.62.
As to A6C U13C U26C G83U U112C, the self-cleavage was found to be 0.
Turning to U9A A43G A78G, the self-cleavage stood at 0.38.
Take U14C U15C A30G: the self-cleavage was determined as 0.
For A2U U12A A94G A129U, the self-cleavage worked out at 0.22.
The value for U9C A50U U108A was 1.23; that for U15C U47A A67G U132C was 0.77.
Consider U9A A92G A140G, for which the self-cleavage came to 0.33.
C38U U73A U87C A92G U102A: the self-cleavage is 0.08.
For A65U A79G U119C A136G, the self-cleavage was 0.25.
For U15C U96C C128U, the self-cleavage came to 0.13.
In the case of U45C U87C U100C U134C G135U, the self-cleavage is 0.
For U9A C19U A24G U143C, the self-cleavage was 0.75.
Turning to C3A U96A U112C C133A, the self-cleavage is 0.05.
As for U5C U87C U100C U102A, the self-cleavage was found to be 0.
Take A69G G89U C123U: the self-cleavage came to 0.04.
The value for G11A U47C U132C was 2.04; that for U12C U134C A140G was 0.86; that for A31G A79G G97A U143C was 0.16.
With C28A U91A A141G, the self-cleavage was 0.41.
Turning to U12C U47A U109G U115C A142G, the self-cleavage is 0.
For U29C U73A U108C A124G the value was 1.15.
On to A22U U45C G125C A136U, for which the self-cleavage was determined as 1.64.
Consider A67G G89A U102C, for which the self-cleavage is 0.
Turning to U23C A65G A69U, the self-cleavage was 0.05.
As to G7C G74A U85C U130C A142G, the self-cleavage stood at 0.04.
Turning to U14C A78U U81C, the self-cleavage is 1.79.
For U96A U100A C111U the value was 0.07; for A31G U62C A69U, 0.
In the case of U91C A92U U102A A140G, the self-cleavage was 0.37.
For A2G U14C G80A U100A, the self-cleavage is 0.98.
Turning to A2G U15C G40A A59G U100G U132C, the self-cleavage amounted to 0.
Regarding G75A A94U U96C, the self-cleavage turned out to be 0.06.
U26C G86A A92U: the self-cleavage came to 0.03.
U45A G127A U130A: the self-cleavage was 1.4.
In the case of U23C A79U U96A U102C, the self-cleavage was 0.39.
Take A2C U14A U45C C101A: the self-cleavage was found to be 0.56.
Regarding G8A G72A A78G U109C A117U U132C, the self-cleavage was determined as 1.85.
Consider G53A A64G A69G U109A A142G, for which the self-cleavage is 0.11.
For the variant U15C C37U U45C U102A, the self-cleavage is 0.85.
G72A A78U A117U U143C: the self-cleavage stood at 2.25.
Consider U26C U100C U115C C131U, for which the self-cleavage stood at 2.58.
As to U85A U119A U134A, the self-cleavage was determined as 0.07.
For the variant A79U U108C A140G, the self-cleavage came out at 1.53.
Regarding U47C A94G U143A, the self-cleavage came out at 0.53.
Regarding G40A A121U A140U U143C, the self-cleavage turned out to be 0.75.
Take G4C C19U U26C A43G U115C G125A: the self-cleavage was found to be 0.6.
Regarding U12G A22G G34A U46C U52C U87C G88A, the self-cleavage is 0.27.
A30U U46C G106U: the self-cleavage is 0.
The value for U12C U14A U23C U73A was 1.2.
On to U14C A50U U102C U108C, for which the self-cleavage is 1.23.
With U13C U47A U73C C113U A136G A141G, the self-cleavage came out at 1.63.
In the case of A22G G44A U62C, the self-cleavage was 0.41.
For C19U U46A U73A U112A the value was 0.92; for U20A A67G A77G, 1.07; for U9A U26A U46C G53A A64G, 0.18.
In the case of C28A A77G A79G G88A U130C U134C A142G, the self-cleavage was determined as 0.09.
Regarding U13C U46A U134C A142G, the self-cleavage came out at 1.76.
For the variant U45A A121U U134C, the self-cleavage came to 1.15.
The value for A6G G32A A57G A77G was 0.5; that for U45C U47C A121U U134A was 1.6.
For A22G A138G A141G the value was 0.68; for C28U U46C U73A U115C A117U, 2.03.
Regarding A42G A43U U52C, the self-cleavage was found to be 1.31.
Regarding U13C U29A A50G A77U A79G U112C G125A, the self-cleavage was 2.87.
For U9G A79G A94G A140G, the self-cleavage worked out at 1.02.
For U46G A65G U119A the value was 0.08; for U15A G54A U104A, 0.11.
Turning to U23A A57G G72A A79U A138G, the self-cleavage was found to be 1.66.
As to C61U A94G U115C, the self-cleavage was determined as 0.03.
Take U9A A42U U47C: the self-cleavage is 1.46.
Consider G4A U39C G72A A124G A140G, for which the self-cleavage stood at 0.05.
Take U9A U45A U91C U100C A140G: the self-cleavage came out at 1.77.
For A59G G72U U85C A129G the value was 0.11; for A6G U39A A141G, 0.98.
For A24G A50G A140G, the self-cleavage worked out at 0.92.
U5C G32A G126C A138G: the self-cleavage is 0.94.
Take U14C A79G A92G: the self-cleavage amounted to 0.
Consider U9C G25A U91C U112C, for which the self-cleavage worked out at 0.
U1G U13A U104C G139A: the self-cleavage was 1.25.
The value for U13C A59G U96C was 0; that for U14C A65G A117G A138G was 0.
Take U12A U14C U45A U91A U104A: the self-cleavage stood at 0.69.
In the case of G7A U9A A67C U85A U134C, the self-cleavage was 0.04.
Turning to U5C U87C A94G U108A, the self-cleavage was found to be 0.4.
Regarding U9C U81G C113U, the self-cleavage was found to be 1.09.
As to U29A U96C U102C, the self-cleavage is 0.
A2G A67C U119C C128G U134C: the self-cleavage is 0.
As to A94U A107U U108C, the self-cleavage amounted to 0.19.
As to A6G U12G C56U A124G, the self-cleavage amounted to 0.27.
The value for U62C U87A A136G was 0.02.
On to G48A U62C A141G, for which the self-cleavage was determined as 0.05.
With A79G G80U A121U, the self-cleavage stood at 0.76.
For the variant U15A G21A G60C U132C U143A, the self-cleavage is 0.

Values taken from the RNAGym collection of RNA variant scans (doi:10.7554/elife.90254).
